{"source": "PubChem BioAssay AID588855", "about": "(National Center for Advancing Translational Sciences (NCATS), 2011)", "note": "The whole screen tested about 410,000 compounds, of which about 5,000 (1.2%) were called active. Inconclusive means that the source gave no clear call. Such entries were picked first, then a sample of the others. Calls come from the whole dose curve; as a rule, active = well fitted inhibition curve with a large enough effect; inconclusive = small, poorly fitted or top-dose-only effect; inactive = no such curve, though single readings can be large or run the other way. A potency beside an inconclusive call is a rough fit, not a confirmed value. % is set by controls: 0 for no effect and ±100 for the full control effect; potency is the fitted concentration of half-maximal effect; tags give direction and shape of the fitted curve."}
{"experiment": "qHTS for Inhibitors of TGF-b; note: nearly all actives have a fitted effect of over 65% in size", "details": "HepG2 CAGA-GFP TGF-b/SMAD3 reporter, GFP fluorescence, 18 h, TGF-beta stimulated, 500 pg/mL final; series mostly up to 46.1 µM; activity, negative = inhibition: at the top concentration", "procedure,_shortened": "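Using HEPG2 CAGA-GFP reporter cells at 1000 cells/well, we pinned test compounds, stimulated with recombinant TGF-beta (500 pg/mL final) and measured total well GFP after 18 h.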"}
{"smiles": "CC(=O)c1cccc(Nc2ccc3cc(S(=O)(=O)N4CCC(C)CC4)ccc3n2)c1", "Potency": "inconclusive: 11.2 µM [inhibitor, partial curve, poor fit]"}
{"smiles": "COc1ccc(/C=N/n2cnc3scc(-c4cccs4)c3c2=O)cc1OC", "Potency": "inconclusive: 35.5 µM [inhibitor, partial curve, poor fit]"}
{"smiles": "C=CCN1C(=O)c2ccc(C(=O)OCC(=O)N3CCN(c4ccccc4)CC3)cc2C1=O", "activity, negative = inhibition": "inactive: 19.9%"}
{"smiles": "CCCn1c(=O)c(C(=O)NCc2ccc3c(c2)OCO3)c(O)c2ccccc21", "activity, negative = inhibition": "inactive: -12.1%"}
{"smiles": "COc1cc(/C=C/c2nc3ccccc3c(=O)[nH]2)cc(Cl)c1O", "activity, negative = inhibition": "inactive: 10.5%"}
{"smiles": "CC1(C)Cc2c(C#N)c(SCC(=O)c3ccccc3)nc(N3CCOCC3)c2CO1", "Potency": "inconclusive: 15.8 µM [inhibitor, single point]"}
{"smiles": "CC(C)(C)OC(=O)[C@H](Cc1ccccc1)NC(=O)c1nc[nH]c1C(=O)NC1CCNCC1", "Potency": "inconclusive: 5.62 µM [inhibitor, single point]"}
{"smiles": "O=C(Nc1cccc(S(=O)(=O)N2CCCCCC2)c1)c1ccc(=O)[nH]c1", "Potency": "inconclusive: 22.4 µM [inhibitor, single point]"}
{"smiles": "COc1ccc(NC(=O)Nc2c(O)ccc3ccccc23)cc1", "Potency": "inconclusive: 22.4 µM [inhibitor, single point]"}
{"smiles": "COc1ccc(OC)c(S(=O)(=O)N2CCN(c3ccccc3)CC2)c1", "activity, negative = inhibition": "inactive: -5.47%"}
{"smiles": "N#Cc1ccc(NC(=O)COC(=O)C2=COCCO2)cc1", "Potency": "inconclusive: 1 µM [inhibitor, full curve]"}
{"smiles": "COc1ccc(S(=O)(=O)Nc2ccccc2C(=O)NCc2cccnc2)cc1C", "Potency": "inconclusive: 1.58 µM [inhibitor, partial curve, poor fit]"}
{"smiles": "Cc1cc(C)c(S(=O)(=O)NC2CC3CCC2C3)c(C)c1", "note": "(stereo not given)", "Potency": "inconclusive: 2.82 µM [inhibitor, full curve]"}
{"smiles": "N#Cc1ccccc1Cn1c(SCC(=O)Nc2ccc(F)cc2)nc2ccccc21", "activity, negative = inhibition": "inactive: -10.7%"}
{"smiles": "COc1cccc(/C=C/C(=O)Nc2ccc3[nH]c(=O)[nH]c3c2)c1", "activity, negative = inhibition": "inactive: 6.02%"}
{"smiles": "O=C(Nc1nnc(S(=O)(=O)N2CCCCCC2)s1)c1cccc(Br)c1", "Potency": "active: 10 µM"}
{"smiles": "COc1ccc(Cl)cc1-c1cc(C(=O)NCc2ccc(C(F)(F)F)cc2)[nH]n1", "Potency": "inconclusive: 25.1 µM [inhibitor, single point]"}
{"smiles": "Cc1cccc(NC(=S)N/N=C/c2ccc3c(c2)OCO3)c1", "activity, negative = inhibition": "inactive: -22%"}
{"smiles": "CSCC[C@H](NC(=O)c1ccc(Cl)c(S(=O)(=O)N2CCCC2)c1)c1nc2ccccc2[nH]1", "activity, negative = inhibition": "inactive: -32.2%"}
{"smiles": "COc1nccnc1NS(=O)(=O)c1ccc(NC(=S)NC(=O)c2ccc(F)cc2)cc1", "activity, negative = inhibition": "inactive: -9.61%"}
